In US12551573B2, “Compositions and methods for the targeting of PCSK9” (Scribe Therapeutics Inc., priority 2022, dated 2026):
Where two headings read alike, the source gives them in different places.

Tested on: HBEGF locus
Assay type: cell-based, human
[1] = repressor domain in dXR, repression of the HBEGF gene, abundance of domain in library after vs before diphtheria toxin selection
[2] = high-throughput screen of dXR repression of the HBEGF gene, change in abundance of each domain in the library before and after diphtheria toxin selection

Row | Molecule | Log2 (fold change) [1] | Log2 (fold change) [2]
1 | DOMAIN_10491 (protein, Vicugna pacos) RPESVTFEDVAIYFSENEWTGLAPAQRALYRDVMLENYGALASLAAFPFPKPALIFQLEQGEAPWSSAPQGALDGEGPRGI | 3.7199 | 
2 | DOMAIN_10495 (protein, Delphinapterus leucas) SQEAVTFEDVAVNFSNEEWQCLTHAQRHLYKDVMLENYGNVVSLGFPFPKPPLISHLEQEAELCVQDGQDREFLSCSHPVS | 3.4705 | 
3 | DOMAIN_10526 (protein, Delphinapterus leucas) FQGSLSFRDVAVGFTRKEWQQLDPTQRTLYRDVMLENYSHLVSVGCQVTKPAVISRLEQGQEPWMKEEEILRWSFPEVLQV | 2.4499 | 
4 | DOMAIN_10623 (protein, listed as Carlito syrichta) SQGLVTFGDVALDFSQEEWEWLNPSQKDLYRDVMLENYRNLVWLGLSISKPNMISLLEQGKEPWMVEREMSHGQCADWESW | 3.2233 | 
5 | DOMAIN_10646 (protein, Delphinapterus leucas) FESVVFEDVAVDFTPEEWALLDPAQRNLYRDVMLETFRNLASVGENWKCHSIEDQHKNQGTHLRWRVVEIPSENNESNQCG | 2.9354 | 
6 | DOMAIN_10647 (protein, Delphinapterus leucas) AQESVMFSDVSIDFSQEEWEYLNDDQRDLYREVMLENYSNLVSMAGHSISKPDVISFLEQGKEPWLVDRELTRDQWPVLES | 2.9514 | 
7 | DOMAIN_10684 (protein, listed as Odobenus rosmarus) QAEVTFEDVAVLFSREEWGRLSPAQRGLYRDVMLETYRNLVSLGAGPAGPKPGVITQLERGDEPWVLDAQGAKGKERLRVS | 4.531 | 
8 | DOMAIN_10704 (protein, listed as Colobus angolensis) RLESVTFEDVAVYFTQNQWASLNPAQRALYGEVMLENYANVASLVAFPFPKPALISHLERGEAPWGPDPWDTKIPRGIGQG | 3.1582 | 
9 | DOMAIN_12292 (protein, listed as Sus scrofa) FQAPVTFGDLAIYFSQEEWECLSPIQKDLYEDVMLENYQNLVSLGLSFRRPNVITLLEKGKAPWMVEPVKRRRGLDLGSKC |  | 4.3194
10 | DOMAIN_10705 (protein, listed as Colobus angolensis) SKAPITFGDLAIYFSQEEWEWLSPIQKDLYEDVMLENYRNLVSLGLSFRRPNVITLLEKGKAPWMVEPVRRRQAPDSGSKC | 3.6392 | 
11 | DOMAIN_10733 (protein, listed as Odobenus rosmarus) RPRAVKFADVAVYFSPEEWGCLRPAQRALYRDVMRETYGHLGALGCAGPKPALISWLERNTDDWEPAALDPQECPRGLTVQ | 3.315 | 
12 | DOMAIN_10762 (protein, listed as Erinaceus europaeus) RSEALSFADVSVSFSREEWGCLRPAQKALYRDVMRETCGLLGALGLSGPKPAFISWLEGEMEAWSPEAHEPERESRAADAR | 3.9254 | 
13 | DOMAIN_10765 (protein, listed as Mustela putorius) SSVTFEDVAVYFSQEEWRFLNKAQKHLYHDVMLEVFALIASLGGGQGALEAAAPSEQNVSGGGSQKAYAQDCSLDTNPGQT | 2.5661 | 
14 | DOMAIN_10882 (protein, Vicugna pacos) PQKSVTFEDVAVYFTQTEWDGLSPAQRALYRDVMLENYGNVASLGFPLLKPAVISQLEGGGKLGGPSPLASGTGTGPQGLW | 3.6289 | 
15 | DOMAIN_10902 (protein, Vicugna pacos) RPRAVKFADVAVYFSPEEWECLRPAQRALYRDVMQETYGHLGALGCAGPKPALISWLERNTNDWELAALDPQECPRQMTVQ | 3.1052 | 
16 | DOMAIN_10917 (protein, listed as Odobenus rosmarus) KPGAVSFADVAVYFSPEEWGCLRPAQRALYRDVMRETYGHLGALGFPGPKPALISWMEQESEAWSPAAQDPEEGESLGGAL | 3.7871 | 
17 | DOMAIN_10943 (protein, listed as Cervus elaphus) VFDAVTFTDVAVDFSQDEWERLTLAQRTLYKKVMLENYSNLASLGLCISKPDVISSLEQDKEPWTMKGELTRGPCADLEYV | 2.5554 | 
18 | DOMAIN_12452 (protein, listed as Neophocaena asiaeorientalis) SQGPVSFEDVAVDFTQEEWQQLDPAQRTLYRDVMLENYSHLVSVGYPVSKPGVISKLEQGEEPWIMKRDISNWIYPDRETR |  | 3.8774
19 | DOMAIN_11006 (protein, listed as Loxodonta africana) QESVTFKDVAVDFTQEEWHHMDPTQRILYRDVMLETYSHLVSLGYQVSKPEVIFKLEQGEEPWISEEEIQRPFCPDWEIRP | 2.6669 | 
20 | DOMAIN_11024 (protein, listed as Suricata suricatta) TQDPVVFEDVAVDFTQEEWALLNLAQRNLYRDVMLENFQNLASLGYPLHIPYLISQWKQEEDLGTVERGTIQGEHQEGFET | 3.2397 | 
21 | DOMAIN_11031 (protein, listed as Mandrillus leucophaeus) SKGSLMFRDVSIDFSQEEWECLDSGQMNLYKEVMLENFSNLVSVGLSSSKPAVISLLEQGKEPWMVDRELTRGLCSDLESM | 2.5516 | 
22 | DOMAIN_11034 (protein, listed as Mandrillus leucophaeus) ACESITFGDVAIDFSHQEWEYLNLVQKTLYQEVMMENYDNLVSLGHFISKPDLITLLEQGKEPWMIVGEETRGECTDLDSR | 2.2541 | 
23 | DOMAIN_11040 (protein, listed as Sus scrofa) AQESVMFSDVSIDFSQEEWECLNDDQRALYRDVMLENYSNLVSMAGHSISKPDVISFLEQGKEPWLVDRELTRGQWPVLES | 3.5161 | 
24 | DOMAIN_11053 (protein, Nomascus leucogenys) WPESVTFEDVAVYFTQNQWASLDPAQRALYREVMLENYANVASLVAFPFPKPALISHLERGEAPWGPDPWDTEIPRGISQG | 3.677 | 
25 | DOMAIN_11069 (protein, listed as Capra hircus) RPRAVKFGDVALYFSREEWGCLRPAQRALYRDVMQETYGHLGALGCAGPKPALISWLERNTDDWETAALDPQECPKGVAVQ | 3.2745 | 
26 | DOMAIN_11110 (protein, listed as Sus scrofa) QAEVTFEDVAVLLSREEWGRLGPAQKGLYRDVMLETYRNLVSLGAGHAGPKPGVIAQLERGDEPWVLDMQGREQSTIDGSA | 3.6632 | 
27 | DOMAIN_11130 (protein, Nomascus leucogenys) MGLLTFRDVAIEFSLEEWQCLDTAQKNLYRNVMLENYRNLAFLGIAVSKPDLIICLEKEKEPWNMKRHEMVDEPPDICPHF | 2.3487 | 
